# Hit rate of the full screen: of about 310,000 compounds, about 2,200 (0.71%) showed an effect of 50% or more. Effects have a minus sign here. This is one part of the list.
# Molecular target: human ether-à-go-go-related gene (hERG) potassium channel (human, UniProt Q12809)
# Test: primary screen, population patch clamp on CHO cells stably expressing hERG
# Chain of human ether-à-go-go-related gene (hERG) potassium channel (Q12809 whole entry, looked up): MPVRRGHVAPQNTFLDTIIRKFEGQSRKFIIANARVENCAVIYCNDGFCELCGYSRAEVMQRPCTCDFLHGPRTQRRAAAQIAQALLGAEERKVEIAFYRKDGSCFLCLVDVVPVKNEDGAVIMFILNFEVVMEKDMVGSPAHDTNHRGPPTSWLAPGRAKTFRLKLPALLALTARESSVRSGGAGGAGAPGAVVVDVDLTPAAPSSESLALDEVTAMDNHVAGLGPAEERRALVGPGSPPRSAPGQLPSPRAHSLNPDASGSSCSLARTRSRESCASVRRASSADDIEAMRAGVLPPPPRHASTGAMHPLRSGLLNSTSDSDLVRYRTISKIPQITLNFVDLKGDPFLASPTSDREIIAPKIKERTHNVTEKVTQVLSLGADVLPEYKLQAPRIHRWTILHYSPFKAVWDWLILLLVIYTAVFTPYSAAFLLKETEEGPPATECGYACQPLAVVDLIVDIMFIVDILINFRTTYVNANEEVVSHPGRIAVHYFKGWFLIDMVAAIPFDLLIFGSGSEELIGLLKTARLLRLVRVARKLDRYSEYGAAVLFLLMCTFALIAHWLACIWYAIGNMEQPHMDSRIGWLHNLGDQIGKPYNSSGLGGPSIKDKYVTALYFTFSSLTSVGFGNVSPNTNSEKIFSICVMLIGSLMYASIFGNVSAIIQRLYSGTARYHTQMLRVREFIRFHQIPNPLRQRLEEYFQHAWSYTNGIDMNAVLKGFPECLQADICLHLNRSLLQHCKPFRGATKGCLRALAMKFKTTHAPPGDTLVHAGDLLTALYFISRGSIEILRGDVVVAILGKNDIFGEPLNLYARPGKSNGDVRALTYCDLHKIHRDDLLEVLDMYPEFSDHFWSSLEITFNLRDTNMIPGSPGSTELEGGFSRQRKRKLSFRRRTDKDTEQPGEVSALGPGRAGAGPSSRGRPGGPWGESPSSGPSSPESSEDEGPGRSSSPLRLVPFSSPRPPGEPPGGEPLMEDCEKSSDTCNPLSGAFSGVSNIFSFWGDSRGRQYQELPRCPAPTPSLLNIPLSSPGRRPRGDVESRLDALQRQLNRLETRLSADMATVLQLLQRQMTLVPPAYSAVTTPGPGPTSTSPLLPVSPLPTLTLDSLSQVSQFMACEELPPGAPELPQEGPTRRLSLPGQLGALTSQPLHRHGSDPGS
row,Compound,"hERG current change (%, negative = inhibition) at 1uM"
1,COc1ccc(C(=O)/C=C/c2ccccc2F)c(OC(=O)c2ccc([N+](=O)[O-])cc2)c1,8.58%
2,COc1ccc(C(=O)NN(C)c2nc(-c3ccccc3)nnc2C(F)(F)F)cc1,10.1%
3,CSc1nccc(N/N=C/c2ccccc2)n1,15.5%
4,COc1ccc(OC)c(/C=N/NC(=O)CNC(=O)c2cccc3ccccc23)c1,11.2%
5,O=C1C(=O)N(Cc2ccncc2)C(c2cccc(O)c2)/C1=C(\O)c1ccc2c(c1)OCCO2 (centres unmarked),17%
6,Cc1cc(C)nc(N/N=C/c2c(C)oc3ccccc23)n1,8.73%
7,COc1cc[n+](OC(=O)N2CCCCC2)c(C)c1.c1ccc([B-](c2ccccc2)(c2ccccc2)c2ccccc2)cc1,4.96%
8,COCCNC(=S)Nc1ccc(S(=O)(=O)Nc2cnc3ccccc3n2)cc1,3.04%
9,Cc1ccc(CN2C(=O)c3ccccc3NC2c2ccccn2)cc1 (centres unmarked),12.5%
10,CC1CCN(CCCNC(=O)c2cc3c(s2)-c2ccccc2OC3)CC1,-6.03%
11,Cc1cc(C)nc(SCC(=O)OCC(=O)Nc2ccccc2)n1,7.19%
12,CCCN1C(=O)C(NC(C)=O)c2cc(OC)ccc21 (centres unmarked),22.7%
13,O=C(NC1CC1)C1=C[C@@H](c2ccc(C(F)(F)F)cc2)C[C@@H](OCCCCO)O1,4.02%
14,N#CC1=C(N)N(c2ccccc2)C2=C(C(=O)CCC2)C1c1ccsc1 (centres unmarked),-11.2%
15,Cc1ccc(C(C)C)c(OCc2nn(CC(=O)c3ccc(OC(F)F)cc3)c3[n+]2CCCCC3)c1.[Br-],-14.2%
16,O=C(CCc1ccc(CCC(=O)c2cccs2)s1)c1cccs1,14.9%
17,CCOc1cccc2sc(N(CCN(C)C)C(=O)c3cc4ccccc4cc3OC)nc12.Cl,-8.58%
18,COc1ccccc1NC(=O)c1cc[n+]([O-])cc1,14.3%
19,Oc1cccc(/C=N/Nc2ncnc3c2ncn3Cc2ccccc2)c1,0.545%
20,O=C(O)c1ccc(Cl)c(NC(=S)NC(=O)c2cccc(COc3ccccc3)c2)c1,19.2%
21,C/C(=N\Nc1cccc(Cl)c1)c1ccc(-n2ccnc2)cc1,7.01%
22,CCC1=C(OC(=O)N(CC)CC)N2C(=O)OC(=NCCc3c[nH]c4ccccc34)[C@]2(Cc2ccccc2)[C@H]2C1=CC[C@H]1C(=O)NC(=O)[C@H]12,13.2%
23,CCC(CC)N1CCN(Cc2nc3ccc([N+](=O)[O-])cc3c(=O)n2-c2ccccc2F)CC1,-28.8%
24,O=C(N1CCOCC1)N1CCN(S(=O)(=O)c2ccc(F)cc2)CC1,9.95%
25,CN(C)S(=O)(=O)c1ccc(N2CCCC2)c(C(=O)N2CCN(S(=O)(=O)c3ccccc3F)CC2)c1,10.2%
26,CCOC(=O)C1(CCc2ccccc2)CCN(C2Cc3ccccc3C2)CC1,-18.7%
27,CC1CCN(CCCN2C(=O)C3C(C(=O)Nc4cccc(Cl)c4)C4C=CC3(O4)C2C(=O)NC2CCCCC2)CC1 (centres unmarked),11.7%

row,Compound,"hERG current change (%, negative = inhibition) at 1uM"
1,C/C(=N\NC(=O)c1cc(-c2ccc(C)s2)[nH]n1)c1ccncc1,11.8%
2,Cc1ccc(N(C)S(=O)(=O)c2cccc(C(=O)NC3CC(C)(C)NC(C)(C)C3)c2)cc1,9.04%
3,Cn1c(C(=O)OC(C(=O)NC2CCCC2)c2cccnc2)cc2sccc21 (centres unmarked),7.64%
4,COCc1c(C(=O)N2CCN(Cc3ccc4c(c3)OCO4)CC2)oc2ccccc12,10.2%
5,CCOC(=O)N1CCN(c2c(NCc3ccccn3)c(=O)c2=O)CC1,8.73%
6,O=C(NCCc1ccccc1)c1ccccc1[N+](=O)[O-],11.5%
7,O=C1/C(=C/c2ccco2)Oc2c1ccc(O)c2CN1CCCCC1,-0.366%
8,CCOc1ccccc1NC(=O)Nc1ccncc1,4.41%
9,Cn1c(N)c(C(=O)CSc2nc(C3CC3)n(-c3ccccc3)n2)c(=O)n(C)c1=O,-7.97%
10,CCCn1c(C)cc(C=O)c1C,21.5%
11,CC(C)Sc1nc(N2CCOCC2)c2c(c1C#N)CC(C)(C)SC2,13.3%
12,O=C(CSc1nnc(CNC(=O)c2cccs2)o1)c1ccccc1,10.7%
13,O=C(c1cccc(C(F)(F)F)c1)C1CCCN(Cc2ncc[nH]2)C1 (centres unmarked),11.1%
14,Cc1ccc(Cn2cc(C=O)c(-c3ccc(F)cc3)n2)cc1,18%
15,O=C(CCN1C(=O)S/C(=C\C=C\c2ccccc2)C1=O)Nc1ccc(O)cc1,1.63%
16,CCOCCCn1c(=S)[nH]c2cc(C(=O)N3CCC(C(N)=O)(N4CCCCC4)CC3)ccc2c1=O,9.01%
17,Br.CC1(C(=O)CSc2ncn[nH]2)CCC(=O)O1 (centres unmarked),8.73%
18,CCN(CC)c1ccc(C(=O)Nc2cccc(F)c2)cc1,-5.11%
19,Br.Cc1ccnc(Nc2nc(-c3ccc(Cl)cc3)cs2)c1,9.55%
20,O=C(Nc1ccccc1C(=O)NCC1CCCO1)c1ccc(Cl)cc1 (centres unmarked),0.913%
21,CCOc1ccc2c(c1)C(c1ccc(C)cc1)=NNC(c1ccc(OC)cc1)=N2,-3.73%
22,O=C(/C=C/c1ccccc1)N1CCC(N2CCC(C(=O)N3CCOCC3)CC2)CC1,2.83%
23,O=C(NCc1cc([N+](=O)[O-])ccc1O)c1cccnc1Sc1ccccc1Cl,22.1%
24,Cc1ccc(Nc2ccccc2)nn1,12.4%
25,CCOC(=O)c1ccc(NC(=O)Nc2ccc(Cl)cn2)cc1,4.63%
26,CCOc1ccccc1NC(=O)c1ccc(S(=O)(=O)N2CCOCC2)cc1,-0.445%
